Some of the results follow.

The text below walks through data of article PMC12136788.

Sequences and labels used below:
B1: chr12:120444061:120444162:-|3pUTR|ENSG00000170855|unk|total|mutant (ssRNA)
RNA: GGGAGUUCUACAGUCCGACGAUCAAUUGUCAACCUGCAUAUCCUAAAAAUGUCAAAAUGCUGCAUCUGGUUAAAUGUCGGGGCCGGGGGGAAGCUGAAGGUGCUCGCUUCAUUUGCCUUGUUUACUCAUCCUGCCCUGUAAUGCAACAGAGGAUUGAGCAUCA
B2: chr3:66380370:66380471:-|CDS|ENSG00000144749|msi1|total|mutant (ssRNA)
RNA: GGGAGUUCUACAGUCCGACGAUCCGGUCAAGUGGGGGUCUGACAGGUUCGUUCUUUCCUUGCCGGGGAUUCUUCCUGGACUUCCGCAAGGUUGUAUCACCCGGACUCCACAGAGCUACAGCCUGCAUCUUCAUUAACUUCAGGCAACAGAGGAUUGAGCAUCA
B3: chrY:12776687:12776788:+|CDS|ENSG00000114374|msi1|total|mutant (ssRNA)
RNA: GGGAGUUCUACAGUCCGACGAUCGUUUUUGAUGGUGACAAAAACAGCAUUAAUUGUGCAAGACAAGAAGCCAUUCGAAUGGUCCGAGUAUUAACUGUUAUAAAAGAGUACAUUAAUGAAUGUGACAGUGAUUAUCACAAGGAACAACAGAGGAUUGAGCAUCA
B4: chr9:136477283:136477384:-|CDS|ENSG00000148396|msi1|FALSE|unique (ssRNA)
RNA: GGGAGUUCUACAGUCCGACGAUCGCCCCCGCAGGGUUUUCUCAGCACCCCGGUUUGCUUGUUCCUCACACACAUGCCAGAGAUAGCUCUCAGGGACCCUGUGAGCCCCUGCCUGGACCUCUGACACAGCCCAGAGCACAUGCCCAACAGAGGAUUGAGCAUCA
B5: chr1:162523450:162523604:+|3pUTR|ENSG00000152332|msi1|FALSE|unique (ssRNA)
RNA: GGGAGUUCUACAGUCCGACGAUCAGACUAAGUUGUGCCAGAUGUAAAUCAACCCCUCUUUUAGUUUACUUUAGACUUUGUAUUAGCUCAUCUUUUUUGUAGUAAAUCUAUAGUUUUAAGGUUUCUCAAGAUGUGGCUCUACCUCAACAGAGGAUUGAGCAUCA
B6: ENSG00000107863:be:win_2701|CDS|ENSG00000107863|bound_else_gene|NA|bound_elsewhere_windowed (ssRNA)
RNA: GGGAGUUCUACAGUCCGACGAUCUCUAGUCUGAAGGGAAUCAAGAUCGCAGACAGCCAAAAGUCAUCAGAAGACUCUGGGUCCAGAAAAGAUUCUUCCUCAGAGGUCUUCAGUGAUGCUGCCAAGGAAGGGUGGCUUCAUUUCCAACAGAGGAUUGAGCAUCA
B7: ENSG00000107863:be:win_4201|CDS|ENSG00000107863|bound_else_gene|NA|bound_elsewhere_windowed (ssRNA)
RNA: GGGAGUUCUACAGUCCGACGAUCAAGGAUCAGUAUAGCAGGGAACUGCUUGUGUCCUCCAUCUUUGCAGCUGCUAGUCGCAAGAGGAAGAAGCCGAAAGAAAAAGCACAGCCUAGCAGCUCAGAAGAUGAACUGGACAAUGUACAACAGAGGAUUGAGCAUCA
B8: chr5:160402147:160402258:-|3pUTR|ENSG00000164609|unk|FALSE|unique (ssRNA)
RNA: GGGAGUUCUACAGUCCGACGAUCAUGGUUUACAUUACCGUUUGUUUUCAUUGUGAUUGCCCCUAUGUAACAAUCAUGAAUAUUAGAUUUUUUAAAUUGUAGAAUAUCCUAAUAUUUAUAGCCAGCAGCUGUUACUUUGUUUGUCAACAGAGGAUUGAGCAUCA
B9: chr1:35359206:35359314:+|CDS|ENSG00000146463|unk|total|mutant (ssRNA)
RNA: GGGAGUUCUACAGUCCGACGAUCAAAGACUUUCCUAAACAAUUUGAUCAGGUUUCUGUCUUUAAAUCAAUACGGAAAGAUUUCCGUCCCGUAAGAGAAAACAGCAAAGAGACAUUUUCUGGAAAGGAGAAAAACCGAGACCUACAACAGAGGAUUGAGCAUCA
B10: chr10:68791452:68791550:+|3pUTR|ENSG00000060339|msi1_unk|total|mutant (ssRNA)
RNA: GGGAGUUCUACAGUCCGACGAUCCCCGCCUUCAAAUUAUUAAACACUCCUUGAGUGAAAUAAUUUUGCAUUGCAAAGUGUUUCCGGAUGAACUUUGUUACCGUUUUAACUCCAAUAAAGUUCAUCAGUUUAAUUGACUGCCGUCAACAGAGGAUUGAGCAUCA
B11: chr2:105361111:105361195:-|3pUTR|ENSG00000115641|msi1_unk|FALSE|overlapping (ssRNA)
RNA: GGGAGUUCUACAGUCCGACGAUCCUUUCUCACCCAGGCAAUCUUGCCUUCUGGUUUCUUCCAGCCACAUUGAGACUUUCUUCUAGUGCUUUUCAGUGAUACUCACGUUUGCUUAAACCCUUUAGUGCUUUGUGAUAGUUCAGUCAACAGAGGAUUGAGCAUCA
B12: chr4:7762510:7762611:-|3pUTR|ENSG00000196526|msi1|FALSE|unique (ssRNA)
RNA: GGGAGUUCUACAGUCCGACGAUCGUGCAAUAUUUCUUGGAGAAUUUGGAUGCCUAAGGCAUAAAGGAAAAAAACAGAGUUCAUAGUUUGAGCUGGUAUUUACCCCCUGGGUUUAAAAAUCAGAUUAACUUCUUGGUCUCCCGGCAACAGAGGAUUGAGCAUCA
B13: chr17:19904301:19906232:-|three_prime_utr|ENSG00000108599|control|control|control (ssRNA)
RNA: GGGAGUUCUACAGUCCGACGAUCAACAGCACUAUAUUUCUGAUCUGUCACUGUUGUUUCCAGGAGAGAAUGGGAGACAAUCCUAGACUUCCACCAUAAUGCAGUUACCUGUAGGCAUAAUUGAUGCACAUGAUGUUCACACAGCAACAGAGGAUUGAGCAUCA
B14: chr10:103302795:103303961:-|three_prime_utr|ENSG00000156374|control|control|control (ssRNA)
RNA: GGGAGUUCUACAGUCCGACGAUCGUCUGCUUGUCCUUCAUUAUGGUCUUGUGGUUUCUCCUCUGAAGAUAACUUGAAGAUUCUAGGCACAUUAUGAGGAGGGAAACAAAGGAGGCUUCUGCAGGACUGCAUCUCACCAAAGAUCAACAGAGGAUUGAGCAUCA
B15: ENSG00000198589:be:win_2851|CDS|ENSG00000198589|bound_else_gene|NA|bound_elsewhere_windowed (ssRNA)
RNA: GGGAGUUCUACAGUCCGACGAUCUCUUCAACUUCAGUUCAAGCAGCCUCUGGCAUUAGAAGGGAUAUUAAUGUUUCAGUAGGAUCCCAGCAACCAGAUACGAAGGAUUCUCCUGUCUGUCCUCAUUUCACCACAAAUGGUAAUCAACAGAGGAUUGAGCAUCA
B16: chr11:62888716:62888817:+|3pUTR|ENSG00000168003|unk|FALSE|unique (ssRNA)
RNA: GGGAGUUCUACAGUCCGACGAUCUUUUCUCUUUUUUAAAAACAAACAAACAAACUGUUGCAGAUUAUGAGUGAACCCCCAAAUAGGGUGUUUUCUGCCUUCAAAUAAAAGUCACCCCUGCAUGGUGAAGUCUUCCCUCUGCUUCAACAGAGGAUUGAGCAUCA
B17: chrX:149548394:149548910:-|CDS|ENSG00000283697|control|control|control (ssRNA)
RNA: GGGAGUUCUACAGUCCGACGAUCGCUACUACCUGGAUGGAAGGCACAGGGAUUCUUAGUAGUCUGGUUUACUCAGAUAAUGGUAGUGUAAUGUCUUUGUACAAUAUCUGUUACUAUGCUCUGUUGGCCUCCCUCUCAGUCAUGCAACAGAGGAUUGAGCAUCA
B18: chr18:31624441:31624542:-|3pUTR|ENSG00000118276|unk|total|mutant (ssRNA)
RNA: GGGAGUUCUACAGUCCGACGAUCAUUAAAUAUUCUAUUUUUAUAAAGAUAAAUACUCCGCCGAUAAAAACAAAUUUUAAGUUCCGUUUUCAGACACCGAAUUUCACUUUUGGAGGGGACCCUUGAAUGUCCGUUUCAUUCAAACAACAGAGGAUUGAGCAUCA
B19: chr12:109281406:109281799:-|CDS|ENSG00000139445|control|control|control (ssRNA)
RNA: GGGAGUUCUACAGUCCGACGAUCCGCCCUGCCGGACCUCAGCCCCAGCCCGCUCCCCCACCCCGCCAUGGGAAGGGCUCCUGUAGACUUCAUCAACAUCAGCACCGACAUGAACACUGAGGUGGAUGCCCUCGACCCGAGCAUCAACAGAGGAUUGAGCAUCA
B20: chr1:27370145:27370587:-|three_prime_utr|ENSG00000142748|control|control|control (ssRNA)
RNA: GGGAGUUCUACAGUCCGACGAUCCCAGUGCUGCCACUGCCCCCAUGAAUGACCCAGGGCAAUCCUGUCUCCUCUGUGGGCCUUAGUUUCCGCAUCUGAGAAAUGGCAAUCAUGAAACAGGAUGGUGCAACAGUGAAGAAUUUGCAACAGAGGAUUGAGCAUCA
B21: chr4:177362735:177362840:+|3pUTR|ENSG00000109674|unk|FALSE|unique (ssRNA)
RNA: GGGAGUUCUACAGUCCGACGAUCAAAGUGUUUUUAGUAUGCUUUUAGUCUCUUGUAACUGGGGAGAAGCAGUGUUUUUUUUUUAGGAAAGGAUUAUGCGACACAAUAAAAUAAGAUAUUCUGUCUGUAGUGAAUACAUUUCUCCAACAGAGGAUUGAGCAUCA
B22: chr10:70435285:70435983:-|CDS|ENSG00000156574|control|control|control (ssRNA)
RNA: GGGAGUUCUACAGUCCGACGAUCCAGGCCUCUCUCCAAGUGGCUGAAGCACCCUGGGGCCCUGGAGAAGCAGAUGUCCAGGGUAGCUGGAGAGUGCUGGCCGCGGCCCCCCACACCGCCUGCCACCAAUGUGCUCCUUAUGCUCAACAGAGGAUUGAGCAUCA

In this test the target is MSI1 full-length (mouse, UniProt Q61474 1-362). In words: nsRBNS (natural sequence RNA bind-n-seq); RBNS binding buffer (assumed for nsRBNS): 25 mM Tris pH 7.5, 150 mM KCl, 3 mM MgCl2, 0.01% Triton X-100, 500 ug/ml BSA, 20 U/ml SUPERase-In, 4 C; UNK is unkempt and MSI1 is Musashi-1; names of the RNAs are library labels; protein concentration not given here; high values mean tight binding.
UniProt Q61474, sequence (Q61474 whole entry): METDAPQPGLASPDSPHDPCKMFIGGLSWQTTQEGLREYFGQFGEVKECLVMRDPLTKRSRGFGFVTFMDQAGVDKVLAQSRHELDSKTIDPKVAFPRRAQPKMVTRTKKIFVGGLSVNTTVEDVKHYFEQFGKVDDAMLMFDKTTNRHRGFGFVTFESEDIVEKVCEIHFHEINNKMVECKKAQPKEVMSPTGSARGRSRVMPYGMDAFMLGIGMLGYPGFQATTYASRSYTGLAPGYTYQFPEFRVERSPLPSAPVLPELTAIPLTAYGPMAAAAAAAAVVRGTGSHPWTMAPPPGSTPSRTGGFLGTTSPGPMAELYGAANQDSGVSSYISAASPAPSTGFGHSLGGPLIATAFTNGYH
B1 displayed a binding signal of 0.436 enrichment R.

The molecule B2 registered a binding signal of 0.394 enrichment R.

For the molecule B3, the binding signal is 0.375 enrichment R.

B4: the binding signal stood at 0.519 enrichment R.

In the case of B5, the binding signal worked out at 19.3 enrichment R.

B6 displayed a binding signal of 0.382 enrichment R.

The molecule B7 had a binding signal of 0.381 enrichment R.

The molecule B8 had a binding signal of 10.2 enrichment R.

B9 had a binding signal of 0.189 enrichment R.

Consider B10, for which the binding signal is 0.22 enrichment R.

For the molecule B11, the binding signal is 1.08 enrichment R.

Molecule B12 yielded a binding signal of 0.306 enrichment R.

Turning to B13, the binding signal amounted to 1.13 enrichment R.

B14 yielded a binding signal of 0.569 enrichment R.

As to B15, the binding signal was determined as 0.436 enrichment R.

Regarding B16, the binding signal turned out to be 0.351 enrichment R.

For the molecule B17, the binding signal was 0.604 enrichment R.

Take B18: the binding signal was determined as 1.16 enrichment R.

Take B19: the binding signal was determined as 0.554 enrichment R.

In turn, B20 gave a binding signal of 0.414 enrichment R.

Take B21: the binding signal amounted to 5.5 enrichment R.

For the molecule B22, the binding signal stood at 0.685 enrichment R.
